Results taken from the RNAGym collection of RNA variant scans (doi:10.7554/elife.90254).
Read counts are not given, so values of variants with three or more changes are uncertain.

B1: LINE1-mini (parent)
chain: GGCAGAGCUCAACACAGCGUGGCAAAGUGGCUGUGGCUAGACUGCC

Variants of: B1
Experiment: self-cleavage, relative activity (ratio to wild type); higher = more cleavage; in vitro, sequencing; the parent is a self-cleaving ribozyme

Row | Variant | self-cleavage
1 | CGCAGAGCUCAACACAGAGUGGCAAAGUGGCUGUGGCUAGAAUGCC [G1C C18A C42A] | 0
2 | CUCAGAGCCCAUAACCGCGUGGCAAAGUGGCUGUGGCUAGACUGCC [G1C G2U U9C A12U C13A A16C] | 0
3 | GGCAGAGCUAAACACAGCGUGGCAAAGUGGCUGUGGCCAGACUGCU [C10A U38C C46U] | 0.05
4 | GGCAGAGCUCAACACAGCGUGGCCUAGUGGCUGUGGUUACACUGCC [A24C A25U C37U G40C] | 0.16
5 | GGCUGGGCUCACCACAGCGUGGCAAAGUGGCAGUGGCUAGACAGCC [A4U A6G A12C U32A U43A] | 0.03
6 | GGCAGACCUCAACACAGCGGGGCAAUGUGGCUGUGGCUAGACUGCC [G7C U20G A26U] | 0.23
7 | AGUACAGCUCUACACAGCGUGGCAAAGUCGUUGUGGCUAGACUGCC [G1A C3U G5C A11U G29C C31U] | 0.06
8 | GGCAGAGCUCAACACAGCGCGGCAAAGUGUAUGUGGCUAGCCUGCC [U20C G30U C31A A41C] | 0.02
9 | GGCCGAGCUCAACACACCGUGGCAAAGUGGCUGUGGCUACACUGCC [A4C G17C G40C] | 0.04
10 | GGCAGAACUCAUCACAGCCUGGCAAUGUGACUGUGGCUAGACUGCC [G7A A12U G19C A26U G30A] | 0.19
11 | GGCAGAGGUCAACACAGCGCGGCAAAGUGGCUGUGGCUAGAAUGCC [C8G U20C C42A] | 0.07
12 | GGGAGAGCUCAACACAUCUUCGCAAAGUUGCUGUGGCUAGACUGCC [C3G G17U G19U G21C G29U] | 0.08
13 | GGCAGAGCUCAACAAAGCGUGGCAAAGUGGCCGUGGUUAGACUGCC [C15A U32C C37U] | 0.04
14 | GGCAGAGCUCAGCACAUCGUGGCUAAGUGGCUGUGGCUAUACAGCC [A12G G17U A24U G40U U43A] | 0.01
15 | GGCAGAGCUCAACACAGCCUGGCAAAGUGGCUGUAGCUAGACUGCA [G19C G35A C46A] | 0.23
16 | GGCCGAGCUCAACACAGCGGGGCAAAGUGACUGUCGCUAGACUGCC [A4C U20G G30A G35C] | 0.07
17 | GGCAUAGCUCAACACAGCGUUUCAAAGUGGCUGUGCCUAGACUGCC [G5U G21U G22U G36C] | 0.07
18 | GGGAGAGCUCAACAAAUCUUGGCAAAGUGGCUGUGGCUAGACUGCC [C3G C15A G17U G19U] | 0.04
19 | UGCACAGCUCAGCACAGCGUGGCAAAGUGGCUAUUGCUAGACUGCC [G1U G5C A12G G33A G35U] | 0.08

Row | Variant | self-cleavage
20 | GGCAGAGCUCAACACACCGUGGCAAAGUUGCUGUGGCUAGACUGCU [G17C G29U C46U] | 0.11
21 | GGCAGAUCUCACCACCGCGUGGCAAAUUGGCUGAGGCUAGACUGCC [G7U A12C A16C G27U U34A] | 0.16
22 | GACAAAGCUCAAUACAGCGUGGCAAAGUGGCUGUGGCUAGUGUGCC [G2A G5A C13U A41U C42G] | 0.58
23 | GGCAGACCUCGACACAGCGUGGCAAAGUGGCUGCGGCUAGACUUCC [G7C A11G U34C G44U] | 0
24 | GGGAGAGCUCAGCACAGCGUGGCAAAGUGGCUCUGGCUAGAUUGCC [C3G A12G G33C C42U] | 0.04
25 | GGCCGACCUCAACACAGCGAGGCAAAGUGGCUUUGGCUACACUGCC [A4C G7C U20A G33U G40C] | 0.04
26 | GGCAGAGCUCAACAAAGCGAGGCAAAGUGGCUGUGGUUAGACUGUC [C15A U20A C37U C45U] | 0.02
27 | GGUAGAGCUCAACACAGCGUGGCAAAGUGGUUGUGACUAGACUGCC [C3U C31U G36A] | 0
28 | GGCAAAGCUCAACACAGCGUGGGAAAGUGGAUGUGGCUAGACCGCC [G5A C23G C31A U43C] | 0.05
29 | GGCAUAGCUCAACACAGCGUGGGAUAGUGGCUGUUGCUAGACUGCC [G5U C23G A25U G35U] | 0.22
30 | GGCAGAGCUCAAGACAGCGUGGCAAAGUGACUGUGGUUAGACUGCC [C13G G30A C37U] | 0.05
31 | GGCGGACCUCAACACAGCGUGGCAAAGUGGCUGUGGCUAGACAGCC [A4G G7C U43A] | 0.03
32 | GGCAGCAAUCAACACAGCGUGGCACUGUGGCUGUCGCUAGCGUGCC [A6C G7A C8A A25C A26U G35C A41C C42G] | 0.07
33 | GGCAGAGCUCAACACCGCGUAUCAAAGUGGGUGUAGCUAGACUGCC [A16C G21A G22U C31G G35A] | 0.03
34 | CGCAGAGCUCAACACAGCGUGGCAAAUUGGCUGUGGCUAGAAUGCC [G1C G27U C42A] | 0.03
35 | GGCAGAGCUCAACACAGAGUGGCAAAGUGGCUAUGGCUAGACUCCC [C18A G33A G44C] | 0.03
36 | GACAGAGCUCAACACGGCGUGGCAAAGUAGCUGUGGCGUGACUGCU [G2A A16G G29A U38G A39U C46U] | 0.39
37 | GGCAGAGCUCAACACAGCGUGGGACAGUGGCUAUGGCUAGACUGCC [C23G A25C G33A] | 0.06
38 | GGCAGUGCUCAACACAGAGUGGCAAUGUGGCUGUGGCUAGACUGCC [A6U C18A A26U] | 0.12

Row | Variant | self-cleavage
39 | GGCAGACGUCAACACAGCGUGGCUAAGUGGCUGUGGCUAGUCCGCC [G7C C8G A24U A41U U43C] | 0.12
40 | GGCAAAGCUCAACACAGCGUGGCAAAAUGGCUGUGGCUAGACUACC [G5A G27A G44A] | 0.02
41 | AGCAGAGCUCAAAACAGCGUGGCAAAGUGGCUGUGGCUAGCCAGCC [G1A C13A A41C U43A] | 0.03
42 | GGCAGAGAUCAAGACAGCGUGCCAACGUGGCUAUGGCUAGACUGCC [C8A C13G G22C A26C G33A] | 0.05
43 | GGCAAAGGUCAACACAGCGUGGCCAAGUAGCUGUAGCUAGACAGCC [G5A C8G A24C G29A G35A U43A] | 0.03
44 | GGCAGAGCUCAACCCAGCGUGGCAAAGUGGCUGGGGCUAGAUUGCC [A14C U34G C42U] | 0
45 | GGCAGAGCUCGACACAGCGUGGGAAAGUAGCUGAGGCUAGACUGCC [A11G C23G G29A U34A] | 0.04
46 | GGCAGAGCUCAGCACAGCAUGGAAAAGUGGCUGUGCCUAGACUGCC [A12G G19A C23A G36C] | 0.02
47 | GGCAGAGCUCAACACAGCGUGGCAAAGUGGGUGUGUAUAGACUGCC [C31G G36U C37A] | 0.14
48 | GGCAGAGCCCAACACAGCUUGGCAAUGUGGCAGUGGCUAGACUGAC [U9C G19U A26U U32A C45A] | 0.01
49 | GGCAGAGUUCAACACAGCGUGGCAAAGUGGCUGUGCCUAGCCUGCC [C8U G36C A41C] | 0.18
50 | GGCUGAGCUCAACACAGCGUGGGAAAAUGGCUGUGGCUAGACUCCC [A4U C23G G27A G44C] | 0.08
51 | UGCAGAGCUCAACACAGCGUGGCAAAGUGGCUGUGGCAAGAUCGGC [G1U U38A C42U U43C C45G] | 0.06
52 | UGCAGAGCUCAACACAGAGUGGCAAAGUGGCUGUGGAUAGACUGCC [G1U C18A C37A] | 0.02
53 | GGCAGAGGUCAACACAGCGUGGCAAAGUGGCUGUGGCUACACUGAC [C8G G40C C45A] | 0.11
54 | GUAUGAGCUCAAUACAGCUUGGCAAAGUGGCUGUGGCUAGACUGCC [G2U C3A A4U C13U G19U] | 0.37
55 | GGCAGAGCUCAACACAGCGUGGCAAAGUGGCCGUGGCUAAACAGCC [U32C G40A U43A] | 0.03
56 | GGCAUAGCUCAACAUAGGGUGGAAAAGUGACUGUGGCUAGAUUGCC [G5U C15U C18G C23A G30A C42U] | 0.03
